Experimental data reported in PubChem BioAssay AID1671194 (National Center for Advancing Translational Sciences (NCATS), 2021).
Screen size: about 140,000 compounds; about 240 (0.17%) were called active. Inconclusive means that the source gave no clear call. Such entries were picked first, then a sample of the others. Calls follow the shape of the dose curve; as a rule, active = well fitted inhibition curve with a large enough effect; inconclusive = small, poorly fitted or top-dose-only effect; inactive = no such curve, though single readings can be large or run the other way. Potencies beside an inconclusive call are fits to weak or partial responses and may not hold up.

Experiment: Primary qHTS assay for inhibitors of alpha-synuclein gene (SNCA) expression; also: nearly all actives have a fitted effect of over 45% in size
Conditions: HEK-293 SNCA-luciferase knock-in, luminescence, 24 h; series mostly up to 57.2 µM
Potency is read from the fitted curve at half-maximal effect; tags tell the direction and shape of the fitted curve.

Potency, inactive:
O=C(NCc1ccc(C(F)(F)F)cc1)C1CCN(Cc2ccccc2-c2cccnc2)CC1, O=C(NCCc1ccccc1)C1CCc2ncc(-c3ccsc3)n2C1 (centres undefined), CCN(CC)Cc1cnc2c(C(=O)NC(C)c3ccc(O)cc3)cnn2c1 (centres undefined), O=C(CCc1ccccc1)N1CCc2nc3cc(-c4ccccc4)[nH]n3c(=O)c2C1, Cc1ccc(C(=O)Nc2ccc3oc(-c4ccccc4C)nc3c2)cc1, COC(=O)CNC(=O)N1CCCN(Cc2ccncc2)C(c2ccccc2)CC(=O)NCC1 (centres undefined), COc1ccc(CC(=O)NC2CCc3nnc(C)n3CC2)cc1 (centres undefined)

Potency, inconclusive:
COc1ccc(CN2C(=O)[C@@H]3C[C@@H](CN3Cc3ccccc3)Oc3ccccc32)cc1 56.2 µM [inhibitor, single point], COc1cccc(NC(=O)CSc2c3c(nc4ccccc24)CCCC3)c1 39.8 µM [inhibitor, single point], COc1cccc(-c2nc(SCC(=O)Nc3ccc4c(c3)OCCO4)c(-c3ccc(C)cc3)[nH]2)c1 39.8 µM [inhibitor, single point], CS(=O)(=O)N(Cc1ccccc1)c1ccc(C(=O)Nc2ccc(Cl)cc2)cc1 39.8 µM [inhibitor, partial curve, poor fit], Cc1cc(C)cc(OCC(=O)N2CCC(c3nc4ccccc4s3)CC2)c1 39.8 µM [inhibitor, single point], CCC1(N2CCN(S(=O)(=O)c3cccc4cccnc34)CC2)CCN(C(=O)NC)C1 (centres undefined) 0.316 µM [inhibitor, full curve, poor fit], CC(=O)N1CCc2c(sc3c2c(=O)n(-c2ccc(C)cc2)c(=O)n3Cc2ccccc2C)C1 39.8 µM [inhibitor, single point], CCCCNC(=O)c1ccc2c(c1)NC(=O)C(CS(=O)(=O)Cc1ccc(C)cc1)N2 (centres undefined) 0.178 µM [inhibitor, partial curve, poor fit], O=C(Nc1ccccc1)N[C@H]1CO[C@H]2[C@@H]1OC[C@@H]2Nc1nccc(C2CCCC2)n1 2.82 µM [inhibitor, full curve], COc1cccc(CCC2CCCNC2)c1 (centres undefined) 0.708 µM [inhibitor, full curve, poor fit], COc1ccccc1C(=O)N1CCn2c(nn(-c3ccc(C(F)(F)F)cc3)c2=O)C1 3.16 µM [inhibitor, single point]

Potency, active:
Cc1nn2c(c1-c1ccccc1-c1ccccc1)N(CC1CC1)CCC2 2.51 µM
